{"source": "patent US20230265069A1", "about": "“Small Molecule Inhibitors That Block the Budding of Enveloped Viruses” (priority 2020, published 2023)", "tested_on": "HSV-1", "assay": "HSV-1 release from infected Vero cells, plaque assay"}
{"substance": "Ilaprazole", "values": [{"measurement": "Total Titer HSV-1 in media, 72 h", "setting": "Ilaprazole 4.5 μM", "value": "9.00E+05"}, {"measurement": "Total Titer HSV-1 in media, 72 h", "setting": "Ilaprazole 9.0 μM", "value": "2.20E+05"}, {"measurement": "Total Titer HSV-1 in media, 72 h", "setting": "Ilaprazole 13.5 μM", "value": "4.50E+02"}, {"measurement": "Total Titer HSV-1 in media, 72 h", "setting": "Ilaprazole 18.0 μM", "value": "1.00E+02"}]}
